# Measurements reported in the supplement of paper PMC3334620.
# Over roughly 33,000 sequences, “E-score (-0.5 to 0.5)” has its median near -0.035; the highest 2% begin near 0.34. Some of the results follow.
# Target: T1, Mot3 (UniProt P54785)
# T1 sequence: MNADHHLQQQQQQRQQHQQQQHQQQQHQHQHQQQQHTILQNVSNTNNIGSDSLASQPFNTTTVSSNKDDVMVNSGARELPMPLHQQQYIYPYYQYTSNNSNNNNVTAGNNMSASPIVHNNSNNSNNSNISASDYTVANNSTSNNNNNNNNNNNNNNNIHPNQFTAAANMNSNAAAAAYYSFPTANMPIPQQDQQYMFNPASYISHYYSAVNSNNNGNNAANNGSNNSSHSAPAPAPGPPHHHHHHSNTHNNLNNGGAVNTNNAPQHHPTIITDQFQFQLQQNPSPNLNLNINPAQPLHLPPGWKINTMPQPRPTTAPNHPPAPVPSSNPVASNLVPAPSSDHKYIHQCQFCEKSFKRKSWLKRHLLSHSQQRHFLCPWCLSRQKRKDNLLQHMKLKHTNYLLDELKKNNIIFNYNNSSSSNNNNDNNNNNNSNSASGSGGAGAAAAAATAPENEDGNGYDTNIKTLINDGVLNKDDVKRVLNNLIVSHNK
# Assay: PBM E-score (8-mer binding enrichment) (E-score (-0.5 to 0.5)); higher = stronger / more preferred TF binding; most listed sequences are background and not binding sites
# Details: protein concentration: 200 nM; construct: GST-full length
# How it was run: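 The E-score, a modified Wilcoxon-Mann-Whitney statistic, was computed by the Universal PBM Analysis Suite for every ungapped eight-base word pooled with its reverse complement. Scans behind it were normalised with masliner after bound GST-tagged yeast transcription factors were detected with fluorescent anti-GST. The proteins, at about 100-200 nM, had been applied to universal all-10-mer Agilent arrays made double-stranded by primer extension.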
row,Sequence,PBM E-score
1,TATCGAAA,0.0403
2,TACGCATA,0.273
3,AGGGAACA,0.0413
4,AACTAAAG,0.256
5,ACTGAGAT,-0.0195
6,GCGATCCC,-0.114
7,GCGCCCGC,-0.199
8,CATCGGTC,-0.13
9,CCAGCGCG,-0.0524
10,GCAAGAAC,0.189
11,TCAATTGA,-0.0515
12,GCCCATCA,-0.183
13,AGACCTTC,-0.139
14,CCTGACTC,-0.15
15,CAGAGATG,0.0978
16,CATCTTCA,-0.192
17,CTCTCGCA,-0.279
18,CCCAAGAC,-0.241
19,AACTGAAA,0.0669
20,CCTTAGCA,-0.0537
21,AGAACTGA,0.0206
22,GCGATACC,-0.355
23,ATCGACGC,0.0479
24,TCTGGCCA,-0.0337
25,ATGGGGCG,-0.0949

row,Sequence,PBM E-score
1,ATTTAGTA,0.054
2,GGATTAAA,0.0348
3,GCGGTTGA,0.0516
4,GGCCAGAC,-0.148
5,GGCCAACC,-0.186
6,TATACGAA,0.0446
7,AATTCCAC,-0.164
8,AATGATAA,0.138
9,ACACTCCT,0.0589
10,GAGCGCGC,-0.282
11,GGACCCCC,-0.351
12,CACGTTGC,0.158
13,AGGGAGTA,-0.0149
14,AAGTTCAT,-0.132
15,ACTTGCAC,-0.00643
16,AGACCACC,-2e-05
17,AGGCGGCC,-0.289
18,AGGTCGAC,0.0953
19,ACTGGCAA,-0.0839
20,ACCGTAAA,0.105
21,AAATGTGG,0.0308
22,GCGCAAAA,0.0303
23,AAACGTAT,0.172
24,ACGAGCCC,-0.15
25,GCAGAATA,-0.106

row,Sequence,PBM E-score
1,CAACTCAC,0.0213
2,ATACGGGC,0.00415
3,CAGTCTGG,-0.104
4,TGAACAAA,0.236
5,AGGATATG,-0.0878
6,ATTCTATG,0.154
7,ATACCGAA,0.0362
8,CCCCTGAA,-0.084
9,ATGTATGG,0.111
10,AGACCCCC,-0.0704
11,ATCTATTA,0.126
12,ACGCACTA,0.0546
13,AGCGCGGA,-0.208
14,CTTTGCCC,-0.103
15,AGCACGAT,-0.122
16,CCTTCAAG,0.351
17,AAGGGTAG,-0.155
18,GCTAGTTA,0.0186
19,CATCCAAG,-0.0299
20,AGTATCTG,-0.14
21,ACTGTTGA,0.0174
22,ATAGTAGA,-0.0168
23,ACGATGCA,-0.11
24,GAGGTATA,-0.0563
25,TATATGAA,0.122

row,Sequence,PBM E-score
1,CCGCCTTA,-0.0792
2,CCGCACGG,-0.185
3,ACAATGCA,0.296
4,CAGGTTGG,-0.194
5,CGAAAGCC,-0.148
6,CGTGGTTA,0.0287
7,ATGTTCAA,0.148
8,AGATTCCA,-0.0136
9,AAGACACG,0.262
10,AGTCCGTC,-0.0872
11,AAGTTCCT,0.341
12,AGTACTAA,0.0884
13,GATGTTCC,0.0955
14,ACAGCTCC,-0.142
15,ATTCGTAC,0.117
16,AAGAGATA,-0.0912
17,TACAATCA,0.294
18,AAATGTAG,0.151
19,ATCGCAAA,-0.0857
20,GAGCACTA,-0.093
21,GCGCTGGA,-0.242
22,TATTGCCA,-0.0535
23,CGAAGTCA,-0.114
24,ATTCGCTC,-0.202
25,GCTAATCA,-0.005

row,Sequence,PBM E-score
1,AAGATGGA,-0.247
2,GCTGCCCA,-0.293
3,AGCGTTGG,-0.0923
4,GATCAGGC,0.241
5,ATTGAGTG,-0.0778
6,TCCAAGGA,-0.0839
7,AGTCTAGA,-0.269
8,AATCTTGT,0.17
9,GTCGCAGA,-0.289
10,ACCCTCCC,-0.276
11,CCATTTGA,-0.224
12,CGTGCTAA,0.158
13,GATCGACA,0.048
14,ACGTCAAC,0.0709
15,AACGAAGG,0.115
16,CTTCAGTC,0.0179
17,TCTTCGCA,0.071
18,TACTCCAA,-0.0209
19,ATACATCA,0.16
20,AAACGGCA,0.139
21,ACTAGCGA,-0.0915
22,GTCTTCAA,-0.0786
23,CCTTCAGC,0.0304
24,CCGCGGAG,-0.26
25,CAGACATA,0.182

row,Sequence,PBM E-score
1,CGCGTAGC,0.159
2,CCCTACGG,-0.0611
3,GATCACGA,-0.167
4,ATACTCGC,-0.121
5,CTAGAATA,0.016
6,GACACTAC,0.0334
7,CAGAGGTA,0.128
8,GATGCCGC,-0.202
9,GGATCCAC,-0.191
10,GGGCTCAA,-0.193
11,AATTCGCA,-0.14
12,CTAACACC,0.0726
13,CGAGCTCG,-0.245
14,GGCGTAGA,0.0509
15,AAGTGGCA,-0.205
16,GATGCCCC,-0.345
17,AGCCCCGC,-0.0269
18,GTTAAACA,0.256
19,CGCTAATA,0.0369
20,ATTGACCA,-0.00092
21,TCGCAACA,0.122
22,CTGCCTCA,-0.15
23,GATTAGCA,-0.0223
24,ACTACCGG,-0.139
25,GCAATGGA,-0.00402

row,Sequence,PBM E-score
1,CTGGGGCC,-0.282
2,AAACAAGT,0.151
3,GCAATTCC,-0.0291
4,ACCACATC,-0.0145
5,ATGTTGAG,0.292
6,AACTTTGG,-0.117
7,AACAGGTG,0.229
8,ACAATACC,0.172
9,GGGGTACA,0.00623
10,CCTCAGAC,-0.246
11,CCAAATCG,-0.102
12,CTGACCAA,0.0349
13,AGCAACCT,0.0912
14,GGGGAACC,-0.0132
15,TGGTCACA,-0.0395
16,ACCTGACG,-0.0619
17,ACCGGGTG,-0.0881
18,ACCGTGAT,-0.138
19,GCACCCCC,-0.0681
20,CTCTCGTA,-0.108
21,ACCACGTC,-0.168
22,AGCAGTAC,0.0283
